Reference: PubChem BioAssay AID1476 (National Center for Advancing Translational Sciences (NCATS), 2009)
Several values for one entry are separate records, joined by “and”; a condition that tells them apart may be missing. Equal entries are not always repeated. Screen size: about 200,000 compounds; about 4,500 (2.2%) were called active. Inconclusive results, whose numbers are uncertain, are shown with a selection of clear calls. Calls come from the whole dose curve; as a rule, active = well fitted inhibition curve with a large enough effect; inconclusive = small, poorly fitted or top-dose-only effect, or effect the other way; inactive = flat fitted curve, though single readings scatter. Potencies beside an inconclusive call are fits to weak or partial responses and may not hold up.

Target: Cruzipain (Trypanosoma cruzi) (UniProt P25779)
UniProt P25779, sequence (P25779 whole entry, looked up): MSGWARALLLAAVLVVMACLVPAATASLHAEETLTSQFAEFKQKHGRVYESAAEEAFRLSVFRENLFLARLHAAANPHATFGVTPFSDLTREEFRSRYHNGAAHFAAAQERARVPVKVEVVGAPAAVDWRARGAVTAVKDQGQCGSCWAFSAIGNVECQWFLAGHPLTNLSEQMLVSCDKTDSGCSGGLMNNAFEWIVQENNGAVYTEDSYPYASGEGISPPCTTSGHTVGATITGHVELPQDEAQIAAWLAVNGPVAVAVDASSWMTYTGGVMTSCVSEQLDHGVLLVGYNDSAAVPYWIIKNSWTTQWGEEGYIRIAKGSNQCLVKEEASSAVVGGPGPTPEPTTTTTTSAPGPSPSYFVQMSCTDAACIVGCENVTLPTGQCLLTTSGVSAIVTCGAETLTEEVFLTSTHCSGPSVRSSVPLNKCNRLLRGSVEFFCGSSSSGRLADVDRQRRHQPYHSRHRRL
Assay: qHTS Assay for Promiscuous and Specific Inhibitors of Cruzain (without detergent); note: nearly all actives have a fitted effect of over 40% in size;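 for max response, negative = inhibition: plate controls were enzyme without inhibitor for no effect and buffer without enzyme for full effect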
Conditions: purified cruzain, Z-FR-AMC fluorescence, no detergent
Method in brief: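 Detergent-free condition (0.00005% Triton X-100) in acetate buffer pH 5.5 with DTT. 1.5 nM enzyme and compound were pre-mixed 15 min, then 2 uM Z-FR-AMC substrate added; reaction progress from fluorescence change between first and third reads (60 s).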
Potency is the fitted concentration of half-maximal effect; tags give direction and shape of the fitted curve.

SMILES	Potency	max response, negative = inhibition
O=C(Nc1nnc(-c2ccccc2SCc2ccccc2)s1)Nc1ccccc1F	active: 3.16 µM	–
O=C(NCC1OCCc2ccccc21)c1ccc(NC(=O)c2ccc(Cl)cc2)cc1 (stereo not given)	inconclusive: 39.8 µM [inhibitor, single point]	–
Cc1cc(=O)c2cc(C(=O)Nc3ccccc3)ccc2[nH]1	inconclusive: 39.8 µM [activator, single point]	–
Cc1ccc2cccc(NC(=O)c3ccc(-c4ccc(Br)cc4)o3)c2n1	–	inactive: -12.4%
CC(=O)Nc1nonc1-c1nnc(SCc2ccc(Cl)cc2)n1C	–	inactive: 15.2%
O=C(/C=C/c1ccco1)NC(=S)Nc1nc(-c2ccc(Cl)cc2)cs1	active: 5.01 µM	–
CCOC(=O)c1cc(-c2ccccc2)n(CCC(=O)NC(C)CC)c1C (stereo not given)	inconclusive: 31.6 µM [activator, single point]	–
CCOC(=O)CCc1c(C)c2ccc(OCc3ccc([N+](=O)[O-])cc3)cc2oc1=O	active: 10 µM	–
COc1cc(-c2noc(-c3cc(C(C)C)[nH]n3)n2)cc(OC)c1OC	inconclusive: 39.8 µM [activator, single point]	–
Cc1cc(C)c2c(-n3cccc3)c(C(=O)NCCCN3CCCCC3C)sc2n1 (stereo not given)	–	inactive: -5.51%
COC(=O)c1c(NC(=O)CN2C(=O)NC3(CCc4ccccc4C3)C2=O)sc2c1CCCCC2 (stereo not given)	active: 12.6 µM	–
Cc1ccc(NC(=O)COC(=O)c2ccc3c(c2)NC(=O)C2CCCN32)cc1C (stereo not given)	inconclusive: 25.1 µM [inhibitor, single point]	–
O=C(N/N=C/c1ccc(F)cc1)c1c(O)c2ccccc2[nH]c1=O	inconclusive: 5.01 µM [inhibitor, full curve, poor fit]	–
CCCCN1C(=O)/C(=C\c2ccco2)C(=O)N(CCc2ccccc2)C1=O	inconclusive: 31.6 µM [activator, single point]	–
O=C(COC(=O)C1CC(=O)N(Cc2ccco2)C1)c1ccc(OC(=O)c2ccccc2)cc1 (stereo not given)	inconclusive: 39.8 µM [activator, single point]	–
Cc1ccc(-c2noc(-c3ccc(N4CCCCC4)c([N+](=O)[O-])c3)n2)cc1	–	inactive: 6.12%
CCOc1ccc(C(=O)Nc2cc(S(=O)(=O)Nc3ccccc3Cl)ccc2N2CCOCC2)cc1	inconclusive: 39.8 µM [inhibitor, single point]	–
CN1C(=O)c2ccccc2Sc2ccc(NC(=O)N3CCN(c4ccccc4F)CC3)cc21	inconclusive: 39.8 µM [activator, single point]	–
CCOC(=O)N1CCC(NC(=O)CS(=O)(=O)Cc2nc(-c3cccc(OC)c3)oc2C)CC1	inconclusive: 39.8 µM [activator, single point]	–
COc1cc(CC(=O)OCC2=C[C@H]3[C@@H]4C(C)(C)[C@]4(OC(C)=O)[C@H](OC(=O)Cc4ccccc4)[C@@H](C)[C@]3(O)[C@@H]3C=C(C)C(=O)[C@@]3(O)C2)ccc1O	inconclusive: 10 µM [activator, partial curve]	–
C=CCn1cnc2c(c1=O)c1nc3ccccc3nc1n2/N=C/c1cccc(OC)c1OC	inconclusive: 31.6 µM [activator, single point]	–
CCN(CC)S(=O)(=O)c1ccc(N/N=C(\C)c2ccc3c(c2)OCO3)c([N+](=O)[O-])c1	inconclusive: 7.94 µM [inhibitor, full curve, poor fit]	–

SMILES	Potency	max response, negative = inhibition
CCc1ccccc1NC(=O)NC1CCCCC1	inconclusive: 39.8 µM [inhibitor, single point]	–
COc1ccc(OCCn2c(C)nc3cc(C)c(C)cc32)cc1	–	inactive: -15.2%
COc1cc2[nH]c3c(N4CCN(c5ccc(Cl)cc5)CC4)ncnc3c2cc1OC	inconclusive: 39.8 µM [activator, single point]	–
CCCCOc1ccc(CNC(=O)c2cc3n(n2)CCCN(Cc2ccc(C)cc2)C3=O)cc1	inconclusive: 25.1 µM [activator, single point]	–
Cc1cccc(NC(=O)CN2C(=O)N/C(=C\c3ccc(N4CCOCC4)cc3)C2=O)c1	–	inactive: -20.9%
COc1ccc(N2CCN(C(=O)CSc3nnc4c5cc(C)ccc5n(C)c4n3)CC2)cc1	inconclusive: 39.8 µM [activator, single point]	–
COCCn1c(=O)c(-c2cccc(C#N)c2)nc2cnc(N3CCN(C)CC3)nc21	inconclusive: 39.8 µM [inhibitor, single point]	–
COc1ccc(C(=O)NCC(=O)OCC(=O)c2ccc3c(c2)OCCO3)cc1	active: 12.6 µM	–
Cc1cc(NC(=O)COC(=O)[C@H](Cc2c[nH]c3ccccc23)NC(=O)c2ccc(F)cc2)no1	inconclusive: 15.8 µM [inhibitor, partial curve]	–
O=C(NC(=S)Nc1ccc(Oc2ccccc2)cc1)c1ccc(Cl)cc1	inconclusive: 39.8 µM [inhibitor, single point]	–
O=C(COc1cc(O)c2c(=O)cc(-c3ccccc3)oc2c1)c1ccccc1	inconclusive: 39.8 µM [inhibitor, single point]	–
CC12CCC(C(=O)N3CCN(c4ncccn4)CC3)(c3nc4ccccc4nc31)C2(C)C (stereo not given)	inconclusive: 31.6 µM [activator, single point]	–
Cc1ccc(C(=O)N/C(=C/c2ccco2)C(=O)NCC2CCCO2)cc1 (stereo not given)	inconclusive: 6.31 µM [inhibitor, single point]	–
COc1ccc(OC)c(-c2cc(C(=O)Nc3c(C)nn(Cc4ccccc4)c3C)no2)c1	inconclusive: 39.8 µM [activator, single point]	–
COc1ccc(-c2c(C)nn3c(N4CCN(c5ccccc5)CC4)cc(C)nc23)cc1OC	–	inactive: 6.01%
COc1ccc(-c2cc(-c3ccc(C)cc3)nc(SCc3nnc(-c4ccccc4)o3)c2C#N)cc1OC	active: 10 µM	–
CCOC(=O)c1cc(-c2ccccc2)n(CCC(=O)NC2CCCCC2)c1C	–	inactive: 1.15%
CCSc1nnc(NC(=O)CCc2ccccc2)s1	inconclusive: 31.6 µM [inhibitor, single point]	–
CCOC(=O)c1ccc(NC(=O)CN2c3ccccc3S(=O)(=O)c3ccccc32)cc1	–	inactive: 28.2%
C[C@H](CO)NC(=O)[C@H](C)[C@@H]1C[C@@]1(C)[C@@H](NC(=O)OCc1ccccc1)c1ccccc1	–	inactive: 0.758% and inactive: 15.8%
Cc1cccc(-n2c(SCC(N)=O)nc3c(c2=O)C2(CCCCC2)Cc2ccccc2-3)c1	–	inactive: -0.318%
Cc1ccc2[nH]c3c(c2c1)CN(C(=O)CN1CCCc2ccccc21)CC3	inconclusive: 25.1 µM [inhibitor, single point]	–

SMILES	Potency	max response, negative = inhibition
CC(=O)c1ccc2c(c1)Nc1ccccc1S2	active: 25.1 µM	–
Cc1ccccc1OCc1nc(-c2ccc(-n3cccc3)cc2)no1	inconclusive: 25.1 µM [inhibitor, single point]	–
CCOC(=O)c1cccc(NC(=O)Cn2c(=O)nc(-c3ccccc3F)c3cc(Cl)ccc32)c1	–	inactive: -0.106%
Cc1ccc(C23CC4CC(CC(CC(=O)N5CCOCC5)(C4)C2)C3)cc1	inconclusive: 31.6 µM [activator, single point]	–
CC(C)CC(C(=O)NCC1CCCO1)N(C(=O)Cn1nnc(-c2ccc(F)cc2)n1)c1cccc(C(F)(F)F)c1 (stereo not given)	inconclusive: 20 µM [activator, partial curve]	–
COc1cccc(C(=O)N2CCc3c([nH]c4ccccc34)C2c2ccc(SC)cc2)c1 (stereo not given)	–	inactive: 19.3%
C=CCOC(=O)N[C@H](c1cccc(C(F)(F)F)c1)C(C(C)=O)C(C)=O	–	inactive: -2.52%
Cc1ccc2c(c1)CCCN2C(=O)c1ccc2c(c1)OCO2	–	inactive: 5.94%
COc1ccc(/C=C\c2onc(C)c2S(=O)(=O)N2CCC(C(=O)Nc3cccc(Cl)c3)CC2)cc1	active: 7.94 µM	–
CCCCCCCC/C=C\CCCCCCCC(=O)NCCO	inconclusive: 20 µM [activator, partial curve]	–
COc1ccc(CCNC(=O)CCc2c(C)nc3cc(-c4ccccc4OC)nn3c2C)c(OC)c1	inconclusive: 31.6 µM [activator, single point]	–
Nc1nc2c(c(=O)[nH]1)N(C=O)[C@H](CNc1ccc(C(=O)N[C@@H](CCC(=O)O)C(=O)O)cc1)CN2	–	inactive: -11.8%
CNc1nnc(-c2ccc(N(C)C)cc2)s1	inconclusive: 39.8 µM [inhibitor, single point]	–
CN(C)c1ncc2nc(CCc3ccccc3)c(=O)n(C[C@H]3CCCO3)c2n1	inconclusive: 39.8 µM [activator, single point]	–
Clc1cccc(N/N=C/c2ccc(N3CCOCC3)s2)c1	active: 31.6 µM	–
COc1ccc(Cl)cc1NS(=O)(=O)c1cc(Br)cc2c1N(C(=O)C1CC1)CC2	inconclusive: 6.31 µM [activator, single point]	–
CN(C)c1ccc(/C=N\NC(=S)SCN2C(=O)C3CCC(C)(C2=O)C3(C)C)cc1 (stereo not given)	active: 31.6 µM	–
Nc1nonc1-c1nc2ccccc2n1CC(=O)NC1CCCC1	inconclusive: 39.8 µM [inhibitor, single point]	–
O=C(COc1ccc(Cl)cc1)OCc1cc(=O)n2nc(-c3cccs3)sc2n1	inconclusive: 39.8 µM [inhibitor, single point]	–
COc1ccc(C2NC(=O)C(C)S2)cc1 (stereo not given)	–	inactive: -1.49%
COc1ccc2c(c1)N(C(=O)CN1C(=O)C3CCCCC3C1=O)C(C)(C)C=C2C (stereo not given)	inconclusive: 39.8 µM [activator, single point]	–
